# Experimental data from the supplement of paper PMC8728848.
# Some of the results follow.
# B1: PX14343H-pdi-506-26-506 (Parabacteroides distasonis) (protein)
# chain: QPTGTMTTDSKLTSKESALALTNSAYLKNTVFNKMTPGWGCNTILLLEYMTGKATSENSQSNYKDFQDLLVSDRSLYIEDWWQDCYAGIANCNLALQKLGEFENLDASLVNGYMAEVKFMRALYYFYLVRIFGDVPKITTVQSELGELQVSRAPVKEIYDEIIIPDLLEAEQSDLAFSDHTGRVSMGAVKALLADVYLTYAGYPLQGGKSYYAESAKRSLEVIKSNEYTLFTDYESLRLPSQNNKGEFIYQVQFSLNKRHNESVRIFLPSRSGISAYDLEYGSLIPTKEFVESFEKGDKRTEEKQYFFTNYKGHPSKFSPGAAELEFMDLNGYYIYKFFDQVAVDNTAKSDLNWSVYRYTDVLLMYAEAQVNADGTPNQQSIDIVNQIRGRAGLAPFKQTNASAFLEEVWDQRYFDLCYENKMWFDMLRTRKIRDDKSGEYVDFIGYKTNWGKVYTETQLLFPIPLSERQANPNLTQNQGY
# Experiments:
# Test in all cases: glycan array binding signal (z-score within array); higher = stronger binding
# Settings in all cases: glycan notation: IUPAC condensed, linker removed
# [1] = target: Neu5Ac(a2-6)Gal(b1-4)GlcNAc(b1-3)Gal(b1-4)GlcNAc(b1-3)GalNAc
# Summary of the method: (§1)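 From the Consortium for Functional Glycomics database, 3228 arrays were curated, keeping only those whose protein sequence was available. Binding is given as a within-array Z-score averaged across arrays sharing a protein sequence and across linkers. Negative Z-scores can be read as non-binding.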
# [2] = target: Neu5Ac(a2-6)Gal(b1-4)GlcNAc(b1-3)Gal(b1-4)GlcNAc(b1-3)[Neu5Ac(a2-6)Gal(b1-4)GlcNAc(b1-3)Gal(b1-4)GlcNAc(b1-6)]GalNAc
# Summary of the method: as §1
# [3] = target: Neu5Ac(a2-6)Gal(b1-4)GlcNAc(b1-3)Gal(b1-4)GlcNAc(b1-6)[Gal(b1-3)]GalNAc
# Summary of the method: as §1
# [4] = target: Neu5Ac(a2-6)Gal(b1-4)GlcNAc(b1-3)Gal(b1-4)[Fuc(a1-3)]GlcNAc(b1-3)Gal(b1-4)[Fuc(a1-3)]GlcNAc
# Summary of the method: as §1
# [5] = target: Neu5Ac(a2-6)Gal(b1-4)GlcNAc(b1-3)GalNAc
# Summary of the method: as §1
# [6] = target: Neu5Ac(a2-6)Gal(b1-4)GlcNAc(b1-3)[Neu5Ac(a2-6)Gal(b1-4)GlcNAc(b1-6)]GalNAc
# Summary of the method: as §1
# [7] = target: Neu5Ac(a2-6)Gal(b1-4)GlcNAc(b1-6)GalNAc
# Summary of the method: as §1
# [8] = target: Neu5Ac(a2-6)Gal(b1-4)GlcNAc(b1-6)[Gal(b1-3)GlcNAc(b1-3)]Gal(b1-4)Glc
# Summary of the method: as §1
# [9] = target: Neu5Ac(a2-6)Gal(b1-4)GlcNAc(b1-6)[Gal(b1-3)]GalNAc
# Summary of the method: as §1
# [10] = target: Neu5Ac(a2-6)Gal(b1-4)GlcNAc6S
# Summary of the method: as §1
# Neu5Ac(a2-6)GalNAc = target: Neu5Ac(a2-6)GalNAc
# Summary of the method: as §1
# [11] = target: Neu5Ac(a2-6)GalNAc(b1-4)GlcNAc
# Summary of the method: as §1
# [12] = target: Neu5Ac(a2-6)GalNAc(b1-4)GlcNAc6S
# Summary of the method: as §1
# [13] = target: Neu5Ac(a2-6)GlcNAc(b1-4)GlcNAc
# Summary of the method: as §1
# [14] = target: Neu5Ac(a2-6)GlcNAc(b1-4)GlcNAc(b1-4)GlcNAc
# Summary of the method: as §1
# Neu5Ac(a2-8)Neu5Ac = target: Neu5Ac(a2-8)Neu5Ac
# Summary of the method: as §1
# [15] = target: Neu5Ac(a2-8)Neu5Ac(a2-3)Gal(b1-3)GalNAc(b1-4)[Neu5Ac(a2-3)]Gal(b1-4)Glc
# Summary of the method: as §1
# [16] = target: Neu5Ac(a2-8)Neu5Ac(a2-3)Gal(b1-3)GalNAc(b1-4)[Neu5Ac(a2-8)Neu5Ac(a2-3)]Gal(b1-4)Glc
# Summary of the method: as §1
# [17] = target: Neu5Ac(a2-8)Neu5Ac(a2-3)Gal(b1-4)Glc
# Summary of the method: as §1
# [18] = target: Neu5Ac(a2-8)Neu5Ac(a2-3)Gal(b1-4)GlcNAc
# Summary of the method: as §1
# [19] = target: Neu5Ac(a2-8)Neu5Ac(a2-3)[Gal(b1-3)GalNAc(b1-4)]Gal(b1-4)Glc
# Summary of the method: as §1
# [20] = target: Neu5Ac(a2-8)Neu5Ac(a2-3)[GalNAc(b1-4)]Gal(b1-4)Glc
# Summary of the method: as §1
# [21] = target: Neu5Ac(a2-8)Neu5Ac(a2-8)Neu5Ac
# Summary of the method: as §1
# [22] = target: Neu5Ac(a2-8)Neu5Ac(a2-8)Neu5Ac(a2-3)Gal(b1-4)Glc
# Summary of the method: as §1
# [23] = target: Neu5Ac(a2-8)Neu5Ac(a2-8)Neu5Ac(a2-3)[Gal(b1-3)GalNAc(b1-4)]Gal(b1-4)Glc
# Summary of the method: as §1
# [24] = target: Neu5Ac(a2-8)Neu5Ac(a2-8)Neu5Ac(a2-3)[GalNAc(b1-4)]Gal(b1-4)Glc
# Summary of the method: as §1
# [25] = target: Neu5Ac(a2-8)Neu5Ac(a2-8)Neu5Ac(a2-8)Neu5Ac(a2-3)[GalNAc(b1-4)]Gal(b1-4)Glc
# Summary of the method: as §1
# [26] = target: Neu5Ac(a2-8)Neu5Gc(a2-3)Gal(b1-4)GlcNAc
# Summary of the method: as §1
# [27] = target: Neu5Ac(b2-6)Gal(b1-4)GlcNAc
# Summary of the method: as §1
# Neu5Ac(b2-6)GalNAc = target: Neu5Ac(b2-6)GalNAc
# Summary of the method: as §1
# [28] = target: Neu5Ac9Ac(a2-3)Gal(b1-3)GlcNAc
# Summary of the method: as §1
# [29] = target: Neu5Ac9Ac(a2-3)Gal(b1-4)GlcNAc
# Summary of the method: as §1
# [30] = target: Neu5Ac9Ac(a2-6)Gal(b1-4)GlcNAc
# Summary of the method: as §1
# [31] = target: Neu5Gc(a2-3)Gal(b1-3)GlcNAc
# Summary of the method: as §1
# [32] = target: Neu5Gc(a2-3)Gal(b1-3)[Fuc(a1-4)]GlcNAc
# Summary of the method: as §1
# Neu5Gc(a2-3)Gal(b1-4)Glc = target: Neu5Gc(a2-3)Gal(b1-4)Glc
# Summary of the method: as §1
# [33] = target: Neu5Gc(a2-3)Gal(b1-4)GlcNAc
# Summary of the method: as §1
# [34] = target: Neu5Gc(a2-3)Gal(b1-4)GlcNAc(b1-3)Gal(b1-4)GlcNAc(b1-2)Man(a1-3)[Neu5Gc(a2-3)Gal(b1-4)GlcNAc(b1-3)Gal(b1-4)GlcNAc(b1-2)Man(a1-6)]Man(b1-4)GlcNAc(b1-4)GlcNAc
# Summary of the method: as §1
# [35] = target: Neu5Gc(a2-3)Gal(b1-4)[Fuc(a1-3)]GlcNAc
# Summary of the method: as §1
# [36] = target: Neu5Gc(a2-6)Gal(b1-4)GlcNAc
# Summary of the method: as §1
# Neu5Gc(a2-6)GalNAc = target: Neu5Gc(a2-6)GalNAc
# Summary of the method: as §1
# [37] = target: Neu5Gc(a2-8)Neu5Ac(a2-3)Gal(b1-4)GlcNAc
# Summary of the method: as §1
# [38] = target: Neu5Gc(a2-8)Neu5Gc(a2-3)Gal(b1-4)GlcNAc
# Summary of the method: as §1
# [39] = target: Neu5Gc(a2-8)Neu5Gc(a2-3)Gal(b1-4)GlcNAc(b1-3)Gal(b1-4)GlcNAc
# Summary of the method: as §1
# [40] = target: Neu5Gc(a2-8)Neu5Gc(a2-6)Gal(b1-4)GlcNAc
# Summary of the method: as §1
# [41] = target: Neu5Gc(b2-6)Gal(b1-4)GlcNAc
# Summary of the method: as §1
binder,measurement,setting,value
B1,glycan array binding signal (z-score),[1],-0.478
same,glycan array binding signal (z-score),[2],-0.062
same,glycan array binding signal (z-score),[3],-0.305
same,glycan array binding signal (z-score),[4],0.801
same,glycan array binding signal (z-score),[5],-0.366
same,glycan array binding signal (z-score),[6],0.834
same,glycan array binding signal (z-score),[7],-0.302
same,glycan array binding signal (z-score),[8],-0.482
same,glycan array binding signal (z-score),[9],0.542
same,glycan array binding signal (z-score),[10],-0.299
same,glycan array binding signal (z-score),Neu5Ac(a2-6)GalNAc,-0.406
same,glycan array binding signal (z-score),[11],-0.419
same,glycan array binding signal (z-score),[12],0.748
same,glycan array binding signal (z-score),[13],-0.349
same,glycan array binding signal (z-score),[14],-0.342
same,glycan array binding signal (z-score),Neu5Ac(a2-8)Neu5Ac,-0.264
same,glycan array binding signal (z-score),[15],-0.227
same,glycan array binding signal (z-score),[16],-0.438
same,glycan array binding signal (z-score),[17],-0.39
same,glycan array binding signal (z-score),[18],-0.418
same,glycan array binding signal (z-score),[19],0.228
same,glycan array binding signal (z-score),[20],-0.202
same,glycan array binding signal (z-score),[21],-0.249
same,glycan array binding signal (z-score),[22],-0.373
same,glycan array binding signal (z-score),[23],-0.24
same,glycan array binding signal (z-score),[24],0.165
same,glycan array binding signal (z-score),[25],1.64
same,glycan array binding signal (z-score),[26],2.83
same,glycan array binding signal (z-score),[27],-0.315
same,glycan array binding signal (z-score),Neu5Ac(b2-6)GalNAc,0.072
same,glycan array binding signal (z-score),[28],-0.407
same,glycan array binding signal (z-score),[29],-0.452
same,glycan array binding signal (z-score),[30],-0.404
same,glycan array binding signal (z-score),[31],-0.48
same,glycan array binding signal (z-score),[32],-0.415
same,glycan array binding signal (z-score),Neu5Gc(a2-3)Gal(b1-4)Glc,-0.422
same,glycan array binding signal (z-score),[33],-0.388
same,glycan array binding signal (z-score),[34],-0.486
same,glycan array binding signal (z-score),[35],-0.382
same,glycan array binding signal (z-score),[36],-0.19
same,glycan array binding signal (z-score),Neu5Gc(a2-6)GalNAc,-0.227
same,glycan array binding signal (z-score),[37],-0.357
same,glycan array binding signal (z-score),[38],-0.467
same,glycan array binding signal (z-score),[39],-0.308
same,glycan array binding signal (z-score),[40],-0.346
same,glycan array binding signal (z-score),[41],1.27
